Test [1] can be described thus: qHTS drug screen for cell cycle checkpoint inhibitors in PARPi-resistant BRCA-mutant ovarian cancer cell lines. (AID 1963452). The following applies: PEO1/OlaR viability, CellTiter-Glo luminescence, 96 h. In short, it runs like this:
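PEO1, PEO4 and PEO1/OlaR ovarian cancer cells, 600 per well, exposed 96 h at 37C to a dilution series. Viability read by CellTiter-Glo luminescence, normalized to DMSO and empty wells; activity summarized as Z-AUC.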
Background: qHTS replaces the single test concentration by a dilution series.

The nature of test [2]: qHTS for identification of novel therapeutic agents for treatment of microphthalmiaassociated transcription factor (MiT) renal cell carcinoma (RCC) (AID 1963991).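 On z-score: curves scaled with 100% = DMSO viability and 0% = empty wells.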 The following applies: CellTiter-Glo, 48 h; for z-score: stronger effect = lower value. In short, it runs like this:
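UOK109/UOK124/UOK145 (TFE3 fusions, three partners); 500 cells/well; MIPE v4.0, 1912 cpds, 11 conc.; 48 h, 37 C; CellTiter-Glo, 15 min RT; lum. Norm.: DMSO 100%, empty 0%.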

The nature of test [3]: qHTS assay for small molecule antagonists of peroxisome proliferator-activated receptor gamma signaling (AID 588537). The following applies: HEK293 PPARg-UAS-bla, beta-lactamase ratio, antagonist mode; measured here: W460 blue channel. In short, it runs like this: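 Step one: plate 3000 HEK293 UAS-bla cells per well in medium with 1% stripped serum and hold 6-6.5 h at 37 C. Step two: add compound and 50 nM agonist for 16 h. Step three: CCF4 loading, fluorescence read.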

Test [4] in a line: qHTS assay for small molecule agonists of retinoid X receptor alpha signaling (AID 588544). The conditions noted are these: HEK293T RXRa-UAS-bla, beta-lactamase reporter, 18 h; 530 nm emission.
Test [5] can be described thus: qHTS Validation Assay to Find Inhibitors of Chronic Active B-Cell Receptor Signaling (AID 485345). The following applies: ABC-DLBCL cells, chronic BCR signaling reporter. The procedure, abridged:
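TMD8 ABC-DLBCL cells stably carrying doxycycline-inducible IkappaBalpha–green luciferase fusion plus unfused red luciferase; compounds 46 uM to 3 nM, 4 h at 37C with doxycycline. Corrected green/red luminescence ratio normalized to 10 uM MG-132 and basal cell wells; curves fitted.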

Test [6] can be described thus: S16 Schwann cell PMP22 intronic element beta-lactamase assay (AID 624044). Further: nearly all actives have a fitted effect of over 15% in size. The following applies: S16 rat Schwann cells, PMP22 element beta-lactamase FRET, 24 h. The procedure, abridged: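 Rat S16 Schwann cells with beta-Lac driven by a PMP22 intronic element, compound-treated 24 h at 37 °C. LiveBLAzer FRET B/G read: 460 nm normalized to potassium clavulanate vs DMSO; 535 nm FRET as viability; concentration-effect curves classified.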

Setting [7] is: measured here: PEO1 parental viability.
Where [8] appears, read: TFE3-RCC UOK109 viability, measured here: UOK109 Z-AUC.
The mark [9] stands for this setting: TFE3-RCC viability, measured here: UOK124 Z-AUC.
The mark [10] stands for this setting: TFE3-RCC viability, measured here: UOK124 cell viability.
The mark [11] stands for this setting: TFE3-RCC viability, measured here: UOK145 Z-AUC.
Where [12] appears, read: TFE3-RCC viability, measured here: UOK145 cell viability.
The mark [13] stands for this setting: measured here: 460 nm blue channel.
The mark [14] stands for this setting: measured here: 530 nm viability channel.

This is an account of results in PubChem BioAssay (NCATS).

As a reminder, the AC50 is the concentration giving half of the maximal activity seen.

The other results are listed elsewhere or left out. Further columns of the screen follow, without active or inactive calls. For some of these results: Compounds called inactive in the main read-out are mostly missing here. For some of these results: Words in brackets tell the shape of the fitted curve; partial curves, single points and poor fits give uncertain potencies.
Tags describe the fitted curve by direction and shape.

For the molecule `OC(c1cc(C(F)(F)F)nc2c(C(F)(F)F)cccc12)C1CCCCN1` (stereo not drawn), the AC50 is 15.5 µM [falling, single point] in test [1] (setting [7]); 27.5 µM [falling, single point] in test [1] (measured here: PEO4 viability); 29.6 µM [falling, partial curve] in test [2] (setting [10]); 37.2 µM [falling, single point] in test [2] (setting [12]). Moreover, the results for the z-score in test [2] (setting [8]), in test [2] (setting [9]) and in test [2] (setting [11]) were -0.0523, 0.217 and -0.202, respectively.
`C=CC(=O)N1CCc2ccc(-n3c(=O)ccc4cnc5ccc(-c6cnn(C)c6)cc5c43)cc21`: the AC50 in test [1] (setting [7]) was 1.9 µM [falling, full curve]; in test [1] (measured here: PEO4 viability), 2.13 µM [falling, full curve]; in test [2] (setting [10]), 5.26 µM [falling, partial curve]; in test [2] (setting [12]), 5.9 µM [falling, full curve]. In addition, the z-score is 0.313 in test [2] (setting [8]), -0.897 in test [2] (setting [9]) and 0.00487 in test [2] (setting [11]).
Regarding `CN(C)c1ccc2nc3ccc(=[N+](C)C)cc-3sc2c1`, the AC50 in test [3] is 50.1 µM [rising, single point]; in test [1] (setting [7]), 15.5 µM [falling, single point]; in test [1] (measured here: PEO4 viability), 19.5 µM [falling, single point]; in test [2] (setting [10]) it was 4.69 µM [falling, full curve]; in test [2] (setting [12]), 13.2 µM [falling, partial curve]. For the same molecule, in test [4], the max response was -19.8%. Moreover, the z-score is -0.933 in test [2] (setting [8]), -1.26 in test [2] (setting [9]) and -0.189 in test [2] (setting [11]).
As for `Nc1ncnc2nc(-c3ccc(N4CCOCC4)nc3)cc(-c3cccc(Br)c3)c12`, the AC50 is 5.17 µM [falling, partial curve] in test [5] (measured here: CBG/CBR ratio read-out); 0.0366 µM [rising, full curve] in test [5] (measured here: CBR control luciferase (viability counter)); 0.0087 µM [rising, full curve] in test [1] (setting [7]); 27.5 µM [falling, single point] in test [1] (measured here: PEO4 viability); 20.9 µM [falling, partial curve, poor fit] in test [2] (setting [10]); 23.5 µM [falling, single point] in test [2] (setting [12]). The z-score in test [2] (setting [8]) came to 0.543; in test [2] (setting [9]), 0.394; in test [2] (setting [11]) it was 0.382.
Consider `Clc1cc(Cl)cc(CNc2ncncc2-c2ccc3c(c2)OCO3)c1`, for which the AC50 is 15.5 µM [falling, partial curve] in test [1] (setting [7]); 17.4 µM [falling, partial curve] in test [1] (measured here: PEO4 viability); 23.5 µM [falling, single point] in test [2] (setting [10]); 33.2 µM [falling, single point] in test [2] (setting [12]). For the same molecule, the z-score in test [2] (setting [8]) was 1.21; in test [2] (setting [9]), 0.415; in test [2] (setting [11]) it was 0.237.
For the molecule `Cc1cnc(Nc2ccc(F)cc2Cl)nc1-c1c[nH]c(C(=O)N[C@H](CO)c2cccc(Cl)c2)c1`, the AC50 in test [1] (setting [7]) was 7.76 µM [falling, partial curve]; in test [1] (measured here: PEO4 viability), 9.77 µM [falling, partial curve]; in test [2] (setting [10]), 11.8 µM [falling, partial curve]; in test [2] (setting [12]) it was 13.2 µM [falling, partial curve]. Besides, the z-score was -0.422 in test [2] (setting [8]), -1.8 in test [2] (setting [9]) and -0.565 in test [2] (setting [11]).
Turning to `NC(N)=NC(=O)c1nc(Cl)c(N)nc1N`, the AC50 in test [3] is 70.8 µM [rising, single point]; in test [1] (setting [7]) it was 3.98 µM [falling, partial curve]; in test [1] (measured here: PEO4 viability), 35.5 µM [falling, partial curve, poor fit]. The z-score in test [2] (setting [8]) was found to be 0.172; in test [2] (setting [9]), 0.918; in test [2] (setting [11]) it was 0.67.
As to `CCc1c(O)cc(O)c(C(=O)c2ccc(OCCN3CCOCC3)c(OC)c2)c1CC(=O)N(CCOC)CCOC`, the AC50 in test [1] (setting [7]) is 1.1 µM [falling, full curve]; in test [1] (measured here: PEO4 viability), 3.09 µM [falling, full curve]; in test [2] (setting [10]), 5.9 µM [falling, full curve]; in test [2] (setting [12]) it was 20.9 µM [falling, partial curve]. The figures for the z-score in test [2] (setting [8]), in test [2] (setting [9]) and in test [2] (setting [11]) were -0.124, 0.554 and -0.29, respectively.
On to `CCCCc1ccc2nc(NC(=O)OC)[nH]c2c1`, for which the AC50 in test [6] (setting [13]) is 0.239 µM [falling, full curve]; in test [6] (setting [14]), 11.2 µM [rising, partial curve]; in test [1] (setting [7]), 0.0174 µM [falling, full curve]; in test [1] (measured here: PEO4 viability), 0.0436 µM [falling, full curve]; in test [2] (setting [10]), 0.0833 µM [falling, full curve]; in test [2] (setting [12]), 0.00935 µM [falling, full curve].
For the molecule `CCCCCCNC(=O)n1cc(F)c(=O)[nH]c1=O`, the AC50 in test [6] (setting [13]) is 5.01 µM [falling, full curve, poor fit]; in test [1] (setting [7]) it was 4.36 µM [falling, partial curve]; in test [1] (measured here: PEO4 viability) it was 5.49 µM [falling, partial curve]; in test [2] (setting [12]), 11.8 µM [falling, partial curve]. In addition, the z-score worked out at 0.417 in test [2] (setting [8]), 0.954 in test [2] (setting [9]) and 0.333 in test [2] (setting [11]).
`c1ccc2c(Cc3c[nH]c4ccccc34)c[nH]c2c1`: the AC50 was 24.5 µM [falling, single point] in test [1] (setting [7]); 17.4 µM [falling, partial curve] in test [1] (measured here: PEO4 viability); 26.4 µM [falling, single point] in test [2] (setting [10]); 9.35 µM [falling, full curve] in test [2] (setting [12]). The z-score in test [2] (setting [8]) is 0.129; in test [2] (setting [9]), 0.0241; in test [2] (setting [11]), -0.454.
Take `NC(N)=NC(N)=NCCc1ccccc1`: the AC50 in test [3] is 50.1 µM [rising, single point]; in test [6] (setting [13]) it was 9.99 µM [falling, single point]; in test [6] (setting [14]), 1.41 µM [falling, full curve, poor fit]; in test [1] (setting [7]), 13.8 µM [falling, partial curve]; in test [1] (measured here: PEO4 viability) it was 24.5 µM [falling, single point]; in test [2] (setting [10]), 2.96 µM [falling, full curve]. Moreover, the values for the z-score in test [2] (setting [8]), in test [2] (setting [9]) and in test [2] (setting [11]) were 0.225, 0.0578 and 0.328, respectively.
